How the values were obtained:
[1] = molecular target: T1, HER2 (on HER2高表达细胞株 N87 / BT474) (UniProt P04626); assay: cell-based or functional assay
[2] = molecular target: T1, HER2 (on HER2高表达细胞株 N87 / BT474); assay: cell-based or functional assay; remark: listed apart in the source

B1: PerH-61246 (bispecific antibody, human IgG1, kappa)
heavy: EVQLVESGGGLVQPGGSLRLSCAASGFTFTDYTMDWVRQAPGKGLEWVADVNPNSGGSIYNQRFKGRFTLSVDRSKNTLYLQMNSLRAEDTAVYYCARNLGPSFYFDYWGQGTLVTVSS[human IgG1 constant region cut from this listing]GGGGSGGGGSGGGGSGGGGSGGGGSGGGGSQVQLVQSGAEVKKPGASVKVSCKGSGYTFTDYAIHWVRQAPGQSLEWIGVFSIYYENINYNQKFKGRATMTVDKSTSTAYMELRSLRSDDTAVYYCARRDGGTINYWGQGTLVTVSSGGGGSGGGGSGGGGSGGGGSDVVMTQSPLSLPVTLGQPASISCRSSQSLVHSNGNTYLHWYQQRPGQSPRLLIYKVSNRFSGVPDRFSGSGSGTDFTLKISRVEAEDVGVYFCSQSTHIPWTFGQGTKVEIK
light: DIQMTQSPSSLSASVGDRVTITCKASQDVSIGVAWYQQKPGKAPKLLIYSASYRYTGVPSRFSGSGSGTDFTLTISSLQPEDFATYYCQQYYIYPYTFGQGTKVEIKRTVAAPSVFIFPPSDEQLKSGTASVVCLLNNFYPREAKVQWKVDNALQSGNSQESVTEQDSKDSTYSLSSTLTLSKADYEKHKVYACEVTHQGLSSPVTKSFNRGEC
B1 was tested. Which “最大抑制率(%), N87细胞增殖 (CCK8)” value [1] did it give?
The value was 61.9%.

And the “IC50, N87细胞增殖抑制 (CCK8)” value [2]?
Its value is 0.29 nM.
